Test results: the supplement of paper PMC7125110
± gives the standard error. Variants at the floor of the assay are shown more often than the library holds them.

B1: glmS ribozyme (parent)
chain: AUAAAAGCGCCAGAACUACAGAAAUGUAGUUGACGAGGAGGAGGUUUAUCGAAUUUUCGGCGGAUGCCUCCAAA

How the values were obtained:
Conditions in all cases: with glucosamine-6-phosphate
[1] = variants of: B1; assay: self-cleavage kobs at 40 uM GlcN6P; higher = faster cleavage; RNA array
How it was run: (§1)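 Barcoded glmS ribozyme variants on sequenced MiSeq chips were transcribed in situ by E. coli RNA polymerase and tracked through a hybridised Cy3 probe at 37 °C. Glucosamine-6-phosphate (40 μM to 10 mM) in HEPES/KCl/Mg(OAc)2 buffer was flowed in, and tiles were imaged over ~14 h. Signals were normalised to baseline and to non-cleaving reference variants; per-tile medians were fit to one- or two-exponential decays to give kobs. kcat and KM came from weighted Michaelis–Menten fits across concentrations.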

[2] = variants of: B1; assay: self-cleavage kobs at 640 uM GlcN6P; higher = faster cleavage; RNA array
How it was run: as §1

[3] = variants of: B1; assay: self-cleavage kobs at 160 uM GlcN6P; higher = faster cleavage; RNA array
How it was run: as §1

[4] = variants of: B1; assay: self-cleavage kobs at 2500 uM GlcN6P; higher = faster cleavage; RNA array
How it was run: as §1

[5] = variants of: B1; assay: self-cleavage kobs at 10000 uM GlcN6P; higher = faster cleavage; RNA array
How it was run: as §1

Variant	self-cleavage kobs at 40 uM GlcN6P [1] [s⁻¹]	self-cleavage kobs at 640 uM GlcN6P [2] [s⁻¹]	self-cleavage kobs at 160 uM GlcN6P [3] [s⁻¹]	self-cleavage kobs at 2500 uM GlcN6P [4] [s⁻¹]	self-cleavage kobs at 10000 uM GlcN6P [5] [s⁻¹]
A36C G38U A42U U49A A52C C68U	< 1e-05				
G38U A48G G51U	< 1e-05				
G35A A64U	< 1e-05	< 1e-05	< 1e-05	< 1e-05	< 1e-05
G37C C68U	< 1e-05				
G38A C58A G66A	< 1e-05				< 1e-05
G37A G43U	< 1e-05		< 1e-05		
C34U G44U A52U	< 1e-05	< 1e-05	< 1e-05	< 1e-05	< 1e-05
C34G C58G	< 1e-05	< 1e-05	< 1e-05		< 1e-05
G40C U45A	7.94e-05 ± 9.2e-06	0.000631 ± 7.8e-05	0.000183 ± 3.5e-05	0.00123 ± 0.00018	0.00131 ± 0.00019
A39C C58G	< 1e-05				
G40U C61A	< 1e-05	< 1e-05	< 1e-05	< 1e-05	< 1e-05
A36U A39G G44A	< 1e-05				
G35C G62A	< 1e-05	< 1e-05	< 1e-05	< 1e-05	< 1e-05
C34G G43U	< 1e-05	< 1e-05	< 1e-05	< 1e-05	< 1e-05
G35C C67U	< 1e-05	< 1e-05		< 1e-05	
A36G U57A C58A G60A	< 1e-05				< 1e-05
G40C G63U	< 1e-05	< 1e-05		< 1e-05	< 1e-05
G37U G40U G44A	< 1e-05				< 1e-05
A36G U65C	< 1e-05	< 1e-05	< 1e-05	< 1e-05	
G37C G44A	< 1e-05				
C34G A36G	< 1e-05	< 1e-05	< 1e-05	< 1e-05	< 1e-05
G40C G59A	< 1e-05	< 1e-05	< 1e-05	< 1e-05	
A36G A39G	< 1e-05	< 1e-05	< 1e-05		

Variant	self-cleavage kobs at 40 uM GlcN6P [1] [s⁻¹]	self-cleavage kobs at 640 uM GlcN6P [2] [s⁻¹]	self-cleavage kobs at 160 uM GlcN6P [3] [s⁻¹]	self-cleavage kobs at 2500 uM GlcN6P [4] [s⁻¹]	self-cleavage kobs at 10000 uM GlcN6P [5] [s⁻¹]
G35C U65G	< 1e-05		< 1e-05	< 1e-05	
A36C C50G C70U	0.000435 ± 0.00014				
G41C C68U	< 1e-05	< 1e-05			
G38U G43C A64U	< 1e-05				
C34G A48U U54C	< 1e-05				< 1e-05
G41A U45G	2.84e-05 ± 1.3e-05	0.000144 ± 2.4e-05	3e-05 ± 1.3e-05	0.000565 ± 0.0001	0.000304 ± 5.2e-05
A36G A52C	< 1e-05	< 1e-05	< 1e-05	< 1e-05	< 1e-05
G38U G41A	< 1e-05	< 1e-05	< 1e-05	< 1e-05	< 1e-05
G41A C50U G51C	< 1e-05	< 1e-05		< 1e-05	< 1e-05
G38A U45A G60C	< 1e-05	< 1e-05		< 1e-05	< 1e-05
G40C G44C	< 1e-05				
G35C G41C	< 1e-05	< 1e-05	< 1e-05	< 1e-05	< 1e-05
G35C G38C C71U	< 1e-05				
A39U G43C	< 1e-05		< 1e-05	< 1e-05	
A36G U55A	< 1e-05		< 1e-05		
G37A A53U A64C	< 1e-05				
G40A A53G	0.000243 ± 5.3e-05				
G41A U57A G63U	< 1e-05				< 1e-05
G38A G60U U69G	< 1e-05				< 1e-05
G38C A39C G40C C50A A53G U65C	< 1e-05				
G41C G43C	< 1e-05	< 1e-05	< 1e-05		< 1e-05
G37A G62U C70G	< 1e-05				
